Reference: PubChem BioAssay AID1347165 (National Center for Advancing Translational Sciences (NCATS), 2019)
Hit rate of the full screen: of about 220,000 compounds, about 5,700 (2.6%) were called active. The inconclusive results got no clear call from the source; some entries with a clear call stand among them for comparison. Calls come from the whole dose curve; as a rule, active = well fitted inhibition curve with a large enough effect; inconclusive = small, poorly fitted or top-dose-only effect; inactive = no such curve, though single readings can be large or run the other way. Potencies beside an inconclusive call are fits to weak or partial responses and may not hold up.

Each compound was assayed against Lysine-specific demethylase 5B (Homo sapiens) (UniProt Q9UGL1) (assay: Primary screen for KDM5B Histone Demethylases FDH-coupled qHTS). Settings: FDH-coupled NADH fluorescence (FDH is formaldehyde dehydrogenase); activity change, negative = inhibition: at 57.7 µM (top of the series) unless noted.
Chain of UniProt Q9UGL1 (Q9UGL1 whole entry, looked up): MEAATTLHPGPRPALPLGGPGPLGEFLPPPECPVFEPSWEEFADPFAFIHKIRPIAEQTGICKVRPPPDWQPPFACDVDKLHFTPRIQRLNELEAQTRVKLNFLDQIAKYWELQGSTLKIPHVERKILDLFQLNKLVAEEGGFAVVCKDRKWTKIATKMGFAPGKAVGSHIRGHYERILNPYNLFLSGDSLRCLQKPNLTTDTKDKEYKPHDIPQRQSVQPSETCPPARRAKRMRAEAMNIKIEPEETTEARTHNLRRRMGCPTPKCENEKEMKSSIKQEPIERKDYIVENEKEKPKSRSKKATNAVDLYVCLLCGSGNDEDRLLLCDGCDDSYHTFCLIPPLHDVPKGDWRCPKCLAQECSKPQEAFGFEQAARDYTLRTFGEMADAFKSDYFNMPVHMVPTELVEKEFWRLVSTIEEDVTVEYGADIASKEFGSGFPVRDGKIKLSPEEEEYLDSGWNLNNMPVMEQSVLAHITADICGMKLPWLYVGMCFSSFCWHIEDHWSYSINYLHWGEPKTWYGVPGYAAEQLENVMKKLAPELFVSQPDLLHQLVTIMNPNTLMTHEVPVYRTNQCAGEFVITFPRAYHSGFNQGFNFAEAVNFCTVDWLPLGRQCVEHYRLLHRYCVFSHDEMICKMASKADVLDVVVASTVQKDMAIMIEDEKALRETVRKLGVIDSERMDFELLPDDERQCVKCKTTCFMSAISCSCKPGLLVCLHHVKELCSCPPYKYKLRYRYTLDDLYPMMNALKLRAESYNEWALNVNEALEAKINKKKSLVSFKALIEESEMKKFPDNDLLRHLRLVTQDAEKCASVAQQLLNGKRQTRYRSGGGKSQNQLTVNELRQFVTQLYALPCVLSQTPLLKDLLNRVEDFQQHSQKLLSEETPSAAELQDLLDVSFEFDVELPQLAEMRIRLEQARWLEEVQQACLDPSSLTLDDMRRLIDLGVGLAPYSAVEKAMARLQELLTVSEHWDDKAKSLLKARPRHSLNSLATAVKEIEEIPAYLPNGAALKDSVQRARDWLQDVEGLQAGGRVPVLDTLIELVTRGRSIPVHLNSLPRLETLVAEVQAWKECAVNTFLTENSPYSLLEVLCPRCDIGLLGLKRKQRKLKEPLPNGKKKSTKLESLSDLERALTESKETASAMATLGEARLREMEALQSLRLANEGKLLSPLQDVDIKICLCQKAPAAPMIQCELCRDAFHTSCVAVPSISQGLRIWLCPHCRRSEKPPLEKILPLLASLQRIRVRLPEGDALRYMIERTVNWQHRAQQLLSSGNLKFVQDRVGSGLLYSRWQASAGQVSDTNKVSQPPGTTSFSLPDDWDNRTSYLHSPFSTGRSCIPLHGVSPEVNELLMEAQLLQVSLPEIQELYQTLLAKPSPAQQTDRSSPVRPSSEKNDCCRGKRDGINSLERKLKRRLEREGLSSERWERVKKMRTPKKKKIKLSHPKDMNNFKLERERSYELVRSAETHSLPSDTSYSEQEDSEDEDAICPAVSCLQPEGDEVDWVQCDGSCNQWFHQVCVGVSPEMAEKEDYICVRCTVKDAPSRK
Outline: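 Measured: NADH fluorescence change, 30 min, RT. System: KDM5BΔAP 200 nM final, H3K4me3 peptide, α-KG, Fe(II), ascorbate, NAD⁺ plus FDH, pH 7.5 HEPES. Compounds: titrated, 10 min pre-incubation with enzyme.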
Note: nearly all actives have a fitted effect of over 70% in size.
Potency is the fitted concentration of half-maximal effect; tags give direction and shape of the fitted curve.
Throughout, for activity change, negative = inhibition: 0% is about no effect.

SMILES	activity change, negative = inhibition	Potency
Cc1ccc(C)c(OCCOC(=O)c2ccc(CS(C)(=O)=O)cc2)c1	inactive: -13.9%	
Cc1cc(C=O)cc(C)c1OCc1ccccn1	inactive: 7.53%	
COCc1cc(CNc2nccc(-c3ccccn3)n2)[nH]n1		inconclusive: 28.2 µM [inhibitor, partial curve, poor fit]
COc1ccc(OCc2nc(-c3ccc(-n4cccc4)cc3)no2)cc1	inconclusive: -30.1% [inhibitor]	
c1ccc(-c2nnc3sc(Cn4cccn4)nn23)cc1	inactive: -23.2%	
Cc1noc(C)c1S(=O)(=O)N1C[C@@H](Oc2cccnc2)C[C@H]1C(=O)N1CCCC1	inactive: -8.25%	
c1ccc(CN2CCNc3cc(-c4ccoc4)ncc3C2)cc1		inconclusive: 35.5 µM [inhibitor, partial curve, poor fit]
COc1ccc2[nH]c3c(c2c1)CCNC31CCN(C(=O)c2sccc2C)CC1		inconclusive: 35.5 µM [inhibitor, partial curve, poor fit]
C=CCNC(=O)COC(=O)c1cc(C)nc2ccccc12	inactive: 6.09%	
CN(C)c1nc(Oc2ccc(=O)n(C)n2)nc(N(C)C)n1	inactive: 9.12%	
COc1ccc(-c2c(C)c3ccc(O)c(CN4CCCC4)c3oc2=O)cc1OC		inconclusive: 28.2 µM [inhibitor, partial curve, poor fit]
O=C(NC1CCCC1)C(Sc1ccccn1)c1ccccc1 (stereo unspecified)	inactive: 20.5%	
CCc1nc(NC(=O)C2c3ccccc3C(=O)N(CCOC)C23CCCC3)sc1C (stereo unspecified)	inactive: -23.6%	
Cc1ccc(CNC(=O)c2nccnc2C(=O)O)cc1		inconclusive: 39.8 µM [inhibitor, partial curve, poor fit]
CC1=C(C(=O)N2CCOCC2)C(c2ccccc2Cl)C2=C(CCCC2=O)N1 (stereo unspecified)		inconclusive: 28.2 µM [inhibitor, partial curve, poor fit]
Cc1ccc(C)c(/C=C/c2nc3ccccc3s2)c1		inconclusive: 25.1 µM [inhibitor, partial curve, poor fit]
O=C(Nc1cccc(F)c1)c1ccc2c(c1)CCC2	inactive: 10.4%	
CCC(=O)N1CCc2cc(CNS(=O)(=O)c3cccs3)ccc21		inconclusive: 14.1 µM [inhibitor, partial curve, poor fit]
CCCCOc1ccc(CNC(=O)c2ccc3c(c2)N(C)C(=O)C2CCCCN32)cc1 (stereo unspecified)		inconclusive: 8.91 µM [inhibitor, partial curve, poor fit]
O=C(Nc1ccc(S(=O)(=O)Nc2cnc3ccccc3n2)cc1)c1ccc(Br)cc1	inactive: -25.2%	
Cc1cc(=O)oc2cc(NC(=O)COc3cccc(C(F)(F)F)c3)ccc12		inconclusive: 28.2 µM [inhibitor, partial curve, poor fit]
